# Assay results reported in a collection of fitness landscapes (doi:10.1038/s41467-024-54723-y).
# The full ranking holds about 18,000 sequences; the median of “TetR repression strength (sort-seq, GFP reporter)” is about 0.23, and the highest 2% start at about 0.68. The list shows a part of the results.
# Target: TetR (class B, Tn10) (UniProt P04483)
# Test: TetR repression strength (sort-seq, GFP reporter) (relative to tetO2 = 1); higher = stronger repression
# Conditions: E. coli
# In short: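 In LB with 50 µg/mL chloramphenicol, E. coli SIG10-MAX holding a low-copy library with eight randomized operator positions between a constitutive promoter and sfGFP, plus constitutive TetR, grew for 5 h at 37 °C. FACS then sorted 10^6 cells into 13 fluorescence bins for Illumina sequencing of each bin. Repression strength equals the top bin index plus one less the read-weighted mean bin, normalized to the unaltered operator. Values from three independent transformations were averaged when reads were ≥30 in every replicate and the CV was ≤0.5.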
# UniProt P04483, sequence (P04483 whole entry): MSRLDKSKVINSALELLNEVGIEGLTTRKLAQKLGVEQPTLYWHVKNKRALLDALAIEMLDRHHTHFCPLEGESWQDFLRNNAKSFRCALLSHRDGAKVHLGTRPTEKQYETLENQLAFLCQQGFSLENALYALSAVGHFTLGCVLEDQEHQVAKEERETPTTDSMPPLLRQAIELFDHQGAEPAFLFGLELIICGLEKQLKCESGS
row,Sequence,TetR repression strength
1,TCCCAGTCAGTGAGGGAGA,0.154
2,TCCCACACAGTATGTGAGA,0.13
3,TCCCAAACAGTGGCGGAGA,0.277
4,TCCCGCGGAGTCATGGAGA,0.148
5,TCCCATGTAGTGTACGAGA,0.162
6,TCCCGATCAGTGGAAGAGA,0.508
7,TCCCCACGAGTATCTGAGA,0.207
8,TCCCCAAGAGTGCGAGAGA,0.419
9,TCCCGATCAGTCTGGGAGA,0.215
10,TCCCCGTGAGTAGGGGAGA,0.234
11,TCCCCACCAGTCATCGAGA,0.399
12,TCCCGCAAAGTACAAGAGA,0.317
13,TCCCTTGGAGTAAGTGAGA,0.0553
14,TCCCTGGCAGTAAGGGAGA,0.216
15,TCCCAGATAGTGGAGGAGA,0.342
16,TCCCTAAAAGTGTGTGAGA,0.177
17,TCCCCAAGAGTGAGGGAGA,0.228
18,TCCCGTTCAGTTACCGAGA,0.446
19,TCCCATAGAGTTCTGGAGA,0.00727
20,TCCCAGAGAGTTTTTGAGA,0.299
21,TCCCGTGAAGTGGCAGAGA,0.175
22,TCCCTATTAGTGAGAGAGA,0.631
23,TCCCAATGAGTGCCAGAGA,0.668
24,TCCCTGATAGTCTCCGAGA,0.335
25,TCCCGCACAGTAGCTGAGA,0.211
26,TCCCCCCGAGTGTTGGAGA,0.179

row,Sequence,TetR repression strength
1,TCCCTTCTAGTTGTCGAGA,0.636
2,TCCCTGTAAGTAGAGGAGA,0.246
3,TCCCCAGGAGTTGGAGAGA,0
4,TCCCGGCCAGTGCACGAGA,0.235
5,TCCCGGGCAGTGTTAGAGA,0.354
6,TCCCGTCAAGTATCTGAGA,0.514
7,TCCCCCAGAGTGGGCGAGA,0.137
8,TCCCACTCAGTTGTAGAGA,0.614
9,TCCCTAGGAGTCGGGGAGA,0.261
10,TCCCGGTGAGTGTGTGAGA,0.182
11,TCCCTAACAGTGTAAGAGA,0.355
12,TCCCCGATAGTAAGGGAGA,0.372
13,TCCCACGGAGTGCGTGAGA,0.125
14,TCCCAGCAAGTACGGGAGA,0.361
15,TCCCCCTTAGTAGTGGAGA,0.385
16,TCCCCGGTAGTCTCTGAGA,0.514
17,TCCCTTTGAGTAAGGGAGA,0.152
18,TCCCGCTTAGTGGGGGAGA,0.525
19,TCCCGGAGAGTCAGGGAGA,0.288
20,TCCCTACAAGTATTCGAGA,0.207
21,TCCCAATCAGTCGGAGAGA,0.278
22,TCCCGTAAAGTGTTAGAGA,0.696
23,TCCCGACCAGTGTGAGAGA,0.426
24,TCCCCCCAAGTATGAGAGA,0.104
25,TCCCATCAAGTAAACGAGA,0.592
26,TCCCAGCCAGTAAATGAGA,0.509

row,Sequence,TetR repression strength
1,TCCCTCGGAGTCTGTGAGA,0.215
2,TCCCGGCTAGTGATGGAGA,0.31
3,TCCCTGTCAGTGGCCGAGA,0.399
4,TCCCGAGCAGTAGGTGAGA,0.187
5,TCCCGAGGAGTATGGGAGA,0.36
6,TCCCGCGAAGTGAGTGAGA,0.0178
7,TCCCAGAAAGTTCGGGAGA,0.0678
8,TCCCGGGGAGTTTGTGAGA,0.186
9,TCCCCCAAAGTTAAGGAGA,0.195
10,TCCCTTTCAGTAGCGGAGA,0.798
11,TCCCTATCAGTTTTTGAGA,0.472
12,TCCCAATGAGTGGCTGAGA,0.0325
13,TCCCCGCTAGTAGCTGAGA,0.193
14,TCCCAGTGAGTCACAGAGA,0.348
15,TCCCATTCAGTCAATGAGA,0.457
16,TCCCACTTAGTAAGAGAGA,0.195
17,TCCCGATTAGTGTGGGAGA,0.159
18,TCCCGGAGAGTAGGTGAGA,0.0694
19,TCCCTACAAGTTATTGAGA,0.351
20,TCCCCAGGAGTTATCGAGA,0.0573
21,TCCCTGGTAGTTGCAGAGA,0.0399
22,TCCCAGGTAGTCGGAGAGA,0.277
23,TCCCAAGAAGTATGGGAGA,0.109
24,TCCCGACAAGTAGCTGAGA,0.187
25,TCCCCTCCAGTACACGAGA,0.143
26,TCCCAAGTAGTGGTAGAGA,0.24

row,Sequence,TetR repression strength
1,TCCCTTATAGTTTGCGAGA,0.198
2,TCCCGGCTAGTATCAGAGA,0.43
3,TCCCACAAAGTTAGGGAGA,0.318
4,TCCCGACTAGTATTCGAGA,0.207
5,TCCCACCTAGTCTGTGAGA,0.171
6,TCCCGCATAGTGTCAGAGA,0.276
7,TCCCGAGTAGTGCTGGAGA,0.362
8,TCCCAAGCAGTAAGTGAGA,0.166
9,TCCCTAGGAGTCAGAGAGA,0.0852
10,TCCCTTTAAGTCGTGGAGA,0.211
11,TCCCGAACAGTCAGCGAGA,0.145
12,TCCCCAAGAGTCGTGGAGA,0.101
13,TCCCTGAGAGTAGCTGAGA,0.372
14,TCCCATTAAGTAGGGGAGA,0.256
15,TCCCGACCAGTGACTGAGA,0.362
16,TCCCCCAGAGTCGACGAGA,0.84
17,TCCCATAGAGTCCATGAGA,0.215
18,TCCCGAGTAGTGGCTGAGA,0.311
19,TCCCATTTAGTCTCAGAGA,0.344
20,TCCCGTGTAGTGGGTGAGA,0.117
21,TCCCTTCAAGTACTGGAGA,0.0375
22,TCCCAGTCAGTGAAAGAGA,0.62
23,TCCCACCGAGTTAGTGAGA,0.27
24,TCCCAGGGAGTCACAGAGA,0.214
25,TCCCGTCAAGTCGGGGAGA,0.334
26,TCCCGGTAAGTAGGCGAGA,1.05

row,Sequence,TetR repression strength
1,TCCCATAAAGTGAAAGAGA,0.413
2,TCCCTGGGAGTATGAGAGA,0.46
3,TCCCTGCTAGTGGGGGAGA,0.0729
4,TCCCGACAAGTAGTAGAGA,0.424
5,TCCCCCTTAGTCGAAGAGA,0.277
6,TCCCTCCGAGTGGGCGAGA,0.117
7,TCCCGATCAGTAATGGAGA,0.354
8,TCCCGGGGAGTGCCGGAGA,0.174
9,TCCCGGGTAGTGTACGAGA,0.254
10,TCCCGATCAGTTACTGAGA,0.552
11,TCCCAGCCAGTTCCAGAGA,0.244
12,TCCCAGGTAGTTGTGGAGA,0.505
13,TCCCTTGTAGTTTTGGAGA,0.199
14,TCCCGGCCAGTCATAGAGA,0.522
15,TCCCGTACAGTGACCGAGA,0.312
16,TCCCACCTAGTCCGGGAGA,0.368
17,TCCCGTCGAGTGGATGAGA,0.133
18,TCCCCGTCAGTATTGGAGA,0.51
19,TCCCTAGCAGTACGAGAGA,0.139
20,TCCCGGACAGTCCCGGAGA,0.27
21,TCCCCTGGAGTCTGTGAGA,0.0718
22,TCCCACAGAGTGGCAGAGA,0.348
23,TCCCGGCGAGTTGAAGAGA,0.204
24,TCCCAAGGAGTTGCTGAGA,0.204
25,TCCCGCACAGTCGCCGAGA,0.287
26,TCCCGATCAGTGAGCGAGA,0.544

row,Sequence,TetR repression strength
1,TCCCTTTGAGTATTAGAGA,0.39
2,TCCCTTGCAGTGCGCGAGA,0.173
3,TCCCCCGGAGTATGGGAGA,0.145
4,TCCCCTTAAGTAACTGAGA,0.299
5,TCCCGGGTAGTATGTGAGA,0.237
6,TCCCAAAAAGTCGTAGAGA,0.157
7,TCCCCACAAGTCACCGAGA,0.336
8,TCCCGACCAGTGTCTGAGA,0.256
9,TCCCTTTGAGTAAATGAGA,0.33
10,TCCCACGTAGTTATGGAGA,0.525
11,TCCCCGAAAGTGCGTGAGA,0.183
12,TCCCGACTAGTCGGGGAGA,0.275
13,TCCCAGTGAGTCAAAGAGA,0.187
14,TCCCGCTAAGTTGGTGAGA,0.176
15,TCCCGTATAGTAAAGGAGA,0.0444
16,TCCCAGGCAGTGAAGGAGA,0.0977
17,TCCCAACGAGTACAGGAGA,0.259
18,TCCCGTTAAGTGCGAGAGA,0.109
19,TCCCAGAAAGTAACAGAGA,0.229
20,TCCCGTTCAGTGCTGGAGA,0.399
21,TCCCCTTAAGTGTATGAGA,0.348
22,TCCCATGAAGTAGAGGAGA,0.188
23,TCCCATTTAGTCGCTGAGA,0.208
24,TCCCCAAAAGTCCTTGAGA,0.326
25,TCCCAGGTAGTACACGAGA,0.207
26,TCCCTTCAAGTGGGCGAGA,0.255

row,Sequence,TetR repression strength
1,TCCCGTCAAGTGGGAGAGA,0.0979
2,TCCCGCGGAGTGGCGGAGA,0.119
3,TCCCAAGCAGTGATAGAGA,0.505
4,TCCCGGAAAGTCTCCGAGA,0.234
5,TCCCTCTGAGTGGGCGAGA,0.204
6,TCCCGCGTAGTTACCGAGA,0.161
7,TCCCTGGGAGTGTTAGAGA,0.0903
8,TCCCCTACAGTCGAGGAGA,0.107
9,TCCCACCTAGTATGCGAGA,0.418
10,TCCCGTCGAGTCGTGGAGA,0.511
11,TCCCCGTGAGTAACAGAGA,0.289
12,TCCCCTTCAGTTGGTGAGA,0.183
13,TCCCGGCCAGTGGGCGAGA,0.251
14,TCCCAGGTAGTGTAGGAGA,0.125
15,TCCCTTTAAGTGCTGGAGA,0.3
16,TCCCGTGAAGTCACCGAGA,0.165
17,TCCCTCGGAGTTGAGGAGA,0.0418
18,TCCCGGGCAGTCGGCGAGA,0.457
19,TCCCCGCCAGTGGGGGAGA,0.171
20,TCCCGCGCAGTAATAGAGA,0.426
21,TCCCTCAGAGTACGGGAGA,0.00576
22,TCCCCCTGAGTCGGGGAGA,0.297
23,TCCCCGTGAGTAAACGAGA,0.248
24,TCCCGTAGAGTGTGAGAGA,0.258
25,TCCCACGCAGTGACAGAGA,0.323
26,TCCCCTGCAGTGGCTGAGA,0.205

row,Sequence,TetR repression strength
1,TCCCGTTGAGTTGTCGAGA,0.0242
2,TCCCCCATAGTTCAAGAGA,0.501
3,TCCCGGGGAGTGCGCGAGA,0.123
4,TCCCGATAAGTACTTGAGA,0.405
5,TCCCACTGAGTGGCGGAGA,0.111
6,TCCCTAACAGTAACGGAGA,0.179
7,TCCCAGTCAGTACTGGAGA,0.126
8,TCCCTTGTAGTGTGCGAGA,0.211
9,TCCCAGTTAGTACAAGAGA,0.512
10,TCCCTCCAAGTCGAGGAGA,0.104
11,TCCCGTGGAGTGTTCGAGA,0.914
12,TCCCCGTGAGTGACGGAGA,0.211
13,TCCCGCGAAGTGTGTGAGA,0.233
14,TCCCAAGCAGTGGTTGAGA,0.189
15,TCCCTAGGAGTTCAAGAGA,0.22
16,TCCCTGACAGTGGCTGAGA,0.199
17,TCCCGAACAGTGGGTGAGA,0.949
18,TCCCTGGGAGTGAATGAGA,0.189
19,TCCCGCGGAGTCATTGAGA,0.403
20,TCCCTACGAGTGGCCGAGA,0.256
21,TCCCAATTAGTGGGGGAGA,0.0942
22,TCCCGAAAAGTATTTGAGA,0.171
